# Experimental data: the supplement of paper PMC9135407
# Values joined by “and” are separate entries in the source; they are usually repeats but may differ in a detail not shown here. Identical values can stand only once. Counter-ions that a name gives are not always drawn. Hit rate of the full screen: of about 5,800 compounds, about 620 (11%) showed activity.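 Rule for the calls: active = score above a cut-off or among the top three wells of a plate; in these data no inactive exceeds 0.85.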 This is a selection; strong and weak results do not stand in their true shares.
# System: primary human hepatic stellate cells (donor 1)
# Assay: scaled lipid accumulation score (0 = DMSO-like, 1 = nortriptyline-like); higher = stronger HSC inactivation (lipid re-accumulation), active = hit call of the paper
# Conditions: 48 h
# [1] = library stock concentration: 10 mM
# [2] = library stock concentration: 3.33 mM
structure (smiles),measurement,setting,value
COc1ccc2c(c1)[nH]c1c(C)nccc12 [Harmine],scaled lipid accumulation score,library stock concentration: 9.4 mM,active: 0.851
O=C([O-])Cc1ccccc1.[Na+] [Sodium phenylacetate],scaled lipid accumulation score,library stock concentration: 12.6 mM,inactive: ≤ -0.006 and inactive: ≤ 0
CN1C[C@H](CNC(=O)OCc2ccccc2)C[C@@H]2c3cccc4c3c(cn4C)C[C@H]21 [Metergoline],scaled lipid accumulation score,[1],active: 0.893
N=C(NCc1ccc(Cl)cc1)SCCCc1c[nH]cn1 [Clobenpropit],scaled lipid accumulation score,[1],active: 0.903
CN1[C@@H]2CC(O)C[C@H]1[C@@H]1O[C@@H]12 (stereo not given in full) [Scopine HCl],scaled lipid accumulation score,[2],inactive: 0.01
same,scaled lipid accumulation score,[1],inactive: ≤ 0
S=C(NC1CCCCC1)N1CCC(c2cnc[nH]2)CC1 [Thioperamide],scaled lipid accumulation score,[1],inactive: 0.01
S=C(NC1CCCCC1)N1CCC(c2cnc[nH]2)CC1 [Thioperamide maleate],scaled lipid accumulation score,,inactive: ≤ 0
same,scaled lipid accumulation score,[1],inactive: ≤ 0
C#CCN(C)C(C)Cc1ccccc1 (stereo not given) [Deprenyl],scaled lipid accumulation score,library stock concentration: 26.7 mM,inactive: 0.042
CC(=O)N(C)c1cccc(-c2ccnc3c(C(=O)c4cccs4)cnn23)c1 [Indiplon],scaled lipid accumulation score,[1],inactive: ≤ 0
CN1[C@@H]2CCC[C@H]1CC(=O)C2 [Pseudopelletierine hydrochloride],scaled lipid accumulation score,,inactive: ≤ 0
O=S(=O)(CC1CS1)c1ccc(Oc2ccccc2)cc1 (stereo not given),scaled lipid accumulation score,[2],inactive: ≤ -0.009
same,scaled lipid accumulation score,[1],inactive: ≤ 0
C[C@H](Cc1ccc(OCC(=O)O)cc1)NC[C@H](O)c1cccc(Cl)c1,scaled lipid accumulation score,[1],inactive: 0.03
N[C@@H](Cn1oc(=O)[nH]c1=O)C(=O)O [L-Quisqualic acid],scaled lipid accumulation score,[1],inactive: ≤ 0
NC(N)=NOCC[C@H](N)C(=O)O [Canavanine],scaled lipid accumulation score,[1],inactive: ≤ 0
"NC(N)=NOCC[C@H](N)C(=O)O [Canavanine sulfate monohydrate (L,+)]",scaled lipid accumulation score,,inactive: ≤ 0
NC(N)=NOCC[C@H](N)C(=O)O [L-Canavanine sulfate],scaled lipid accumulation score,[1],inactive: 0.106
NC(N)=NOCC[C@H](N)C(=O)O [L-Canavanine],scaled lipid accumulation score,[1],inactive: 0.174
CC(C)CC(N(C)C)C1(c2ccc(Cl)cc2)CCC1 (stereo not given) [Sibutramine],scaled lipid accumulation score,[1],inactive: ≤ 0
CC(C)CC(N(C)C)C1(c2ccc(Cl)cc2)CCC1 (stereo not given) [Sibutramine hydrochloride],scaled lipid accumulation score,library stock concentration: 6.3 mM,inactive: ≤ 0
same,scaled lipid accumulation score,[1],inactive: 0.131
CC(C)CC(N(C)C)C1(c2ccc(Cl)cc2)CCC1 (stereo not given) [Sibutramine HCl],scaled lipid accumulation score,library stock concentration: 7.1 mM,inactive: 0.252
CC(C)CC(N(C)C)C1(c2ccc(Cl)cc2)CCC1 (stereo not given),scaled lipid accumulation score,[1],inactive: ≤ 0
C=CCN1CC[C@]23c4c5ccc(O)c4O[C@H]2/C(=N/NC(=O)c2ccccc2)CC[C@@]3(O)[C@H]1C5 [Naloxone benzoylhydrazone],scaled lipid accumulation score,[1],inactive: 0.006
CCCCC/C=C\C/C=C\C/C=C\C/C=C\CCCC(=O)NCc1ccc(O)c(OC)c1 [Arvanil],scaled lipid accumulation score,library stock concentration: 1 mM,inactive: ≤ 0
C#C[C@]1(O)CC[C@H]2[C@@H]3CCC4=CC(=O)CC[C@]4(C)[C@H]3CC[C@@]21C [Ethisterone],scaled lipid accumulation score,,inactive: ≤ 0
same,scaled lipid accumulation score,library stock concentration: 6.4 mM,inactive: 0.134 and inactive: 0.803
same,scaled lipid accumulation score,[1],inactive: 0.757
C/C=C1/C[N+]2(C)CCC34C(=C(C=O)[C@H]1C[C@@H]32)Nc1ccccc14 (stereo not given in full) [Fluorocurarine chloride],scaled lipid accumulation score,,inactive: ≤ 0
CC(C)[N+](C)(CCC(C(N)=O)(c1ccccc1)c1ccccc1)C(C)C [Isopropamide iodide],scaled lipid accumulation score,,inactive: ≤ 0
same,scaled lipid accumulation score,[1],inactive: ≤ 0
O=C([O-])c1ccccc1-c1c2cc(Br)c(=O)cc-2oc2[c]([Hg+])c([O-])c(Br)cc12.[Na+].[Na+].[OH-] [Merbromin],scaled lipid accumulation score,,inactive: ≤ 0
same,scaled lipid accumulation score,[1],inactive: ≤ 0
CN1C[C@H](C(=O)N[C@]2(C)O[C@@]3(O)[C@@H]4CCCN4C(=O)[C@H](Cc4ccccc4)N3C2=O)C[C@@H]2c3cccc4[nH]cc(c34)C[C@H]21.CS(=O)(=O)O [Dihydroergotamine methanesulfonate],scaled lipid accumulation score,[1],active: 1.06
O=c1[nH]c2ccccc2n1CCCN1CCC(n2c(=O)[nH]c3cc(Cl)ccc32)CC1 [Domperidone],scaled lipid accumulation score,,inactive: 0.362
same,scaled lipid accumulation score,[2],inactive: 0.062
same,scaled lipid accumulation score,library stock concentration: 4.7 mM,inactive: 0.135 and inactive: 0.071
COP(=S)(OC)Oc1ccc(SC)c(C)c1,scaled lipid accumulation score,[1],inactive: ≤ 0
CC[C@@H](C(N)=O)N1CCCC1=O [Levetiracetam],scaled lipid accumulation score,[2],inactive: ≤ 0
same,scaled lipid accumulation score,[1],inactive: ≤ 0 and inactive: 0.072
same,scaled lipid accumulation score,library stock concentration: 11.8 mM,inactive: ≤ -0.006
NCC(CS(=O)(=O)O)c1ccc(Cl)cc1 (stereo not given) [Saclofen],scaled lipid accumulation score,[1],inactive: ≤ 0
CC[C@@]1(O)C[C@H](O)c2c(cc3c(c2O)C(=O)c2c(O)ccc(O)c2C3=O)[C@H]1C(=O)OC [Rutilantinone],scaled lipid accumulation score,[1],inactive: ≤ 0
O=C(O)CCCc1ccc(N(CCCl)CCCl)cc1 [Chlorambucil],scaled lipid accumulation score,,inactive: ≤ 0
same,scaled lipid accumulation score,library stock concentration: 6.6 mM,inactive: ≤ 0 and inactive: 0.01
same,scaled lipid accumulation score,[1],inactive: ≤ 0
O=C(O)CCCc1ccc(N(CCCl)CCCl)cc1 [Chloroambucil],scaled lipid accumulation score,[2],inactive: ≤ 0
same,scaled lipid accumulation score,[1],inactive: ≤ -0.001
O=C(O)CCCc1ccc(N(CCCl)CCCl)cc1,scaled lipid accumulation score,[1],inactive: ≤ 0
O=Cc1cn(Cc2ccc(Cl)cc2)c2ccccc12 [Oncrasin 1],scaled lipid accumulation score,[1],inactive: 0.016
C[C@@H]1O[C@@H](O[C@H]2C[C@@H](O)[C@]3(CO)C4C(CC[C@]3(O)C2)[C@@]2(O)CC[C@H](C3=CC(=O)OC3)[C@@]2(C)C[C@H]4O)[C@H](O)[C@H](O)[C@H]1O (stereo not given in full) [Ouabain],scaled lipid accumulation score,[1],active: 0.993
C[C@]12CC[C@H]3[C@@H](CC[C@]4(O)C[C@@H](O)CC[C@]34C=O)[C@@]1(O)CC[C@@H]2C1=CC(=O)OC1 [Strophanthidin],scaled lipid accumulation score,,active: 0.887
CCS(=O)(=O)Nc1cccc(C(=C2CCCCC2)c2cnc[nH]2)c1,scaled lipid accumulation score,[1],inactive: 0.044
O=C1/C(=C/c2ccccc2)C[C@@]2(O)[C@H]3Cc4ccc(O)c5c4[C@@]2(CCN3CC2CC2)[C@H]1O5 [BNTX maleate salt hydrate],scaled lipid accumulation score,[1],inactive: ≤ -0.006
CCCCCCCCCCCCCC(=O)O[C@@H]1[C@@H](C)[C@@]2(O)[C@@H](C=C(CO)C[C@]3(O)C(=O)C(C)=C[C@@H]23)[C@@H]2C(C)(C)[C@]12OC(C)=O [Phorbol 12-myristate 13-acetate],scaled lipid accumulation score,[1],inactive: ≤ 0
COc1ccc(C(=O)N2CCCC2=O)cc1 [Aniracetam],scaled lipid accumulation score,[2],inactive: ≤ 0
same,scaled lipid accumulation score,library stock concentration: 9.1 mM,inactive: ≤ -0.006 and inactive: 0.001
same,scaled lipid accumulation score,[1],inactive: ≤ 0 and inactive: 0.022
Cc1ncc(CN2CC=C(c3ccccc3)CC2)c(N)n1,scaled lipid accumulation score,[1],inactive: ≤ -0.001
Cc1[nH]c2ccc(O)cc2c1CCN [2-Methyl-5-hydroxytryptamine maleate],scaled lipid accumulation score,[1],inactive: 0.018
Cc1[nH]c2ccc(O)cc2c1CCN [2-Methyl-5-hydroxytryptamine hydrochloride],scaled lipid accumulation score,[1],inactive: 0.026
C[C@@H]1O[C@@H](O[C@H]2C[C@@H](O)[C@]3(CO)[C@@H]4C(CC[C@]3(O)C2)[C@@]2(O)CC[C@H](C3COC(=O)C3)[C@@]2(C)C[C@H]4O)[C@H](O)[C@H](O)[C@H]1O (stereo not given in full) [Dihydroouabain],scaled lipid accumulation score,[1],active: 0.964
O=C(O[C@H]1C[C@H]2CC[C@@H](C1)[N+]21CCCC1)C(O)(c1ccccc1)c1ccccc1 [Trospium chloride],scaled lipid accumulation score,[2],inactive: ≤ 0
same,scaled lipid accumulation score,[1],inactive: ≤ 0
C[C@]12CCC(=O)C=C1CC[C@@H]1[C@@H]2C(=O)C[C@]2(C)C(=O)CC[C@@H]12 [Adrenosterone],scaled lipid accumulation score,,inactive: ≤ 0
CC[C@H](C)[C@H]1O[C@]2(C=C[C@@H]1C)C[C@@H]1C[C@@H](C/C=C(\C)[C@@H](O[C@H]3C[C@H](OC)[C@@H](O[C@H]4C[C@H](OC)[C@@H](O)[C@H](C)O4)[C@H](C)O3)[C@@H](C)/C=C/C=C3\CO[C@@H]4[C@H](O)C(C)=C[C@@H](C(=O)O1)[C@]34O)O2.CO[C@H]1C[C@H](O[C@H]2[C@H](C)O[C@@H](O[C@@H]3/C(C)=C/C[C@@H]4C[C@@H](C[C@]5(C=C[C@H](C)[C@@H](C(C)C)O5)O4)OC(=O)[C@@H]4C=C(C)[C@@H](O)[C@H]5OC/C(=C\C=C\[C@@H]3C)[C@]54O)C[C@@H]2OC)O[C@@H](C)[C@@H]1O [Abamectin],scaled lipid accumulation score,library stock concentration: 2.3 mM,inactive: 0.027 and inactive: ≤ 0
CC[C@H](C)[C@H]1O[C@]2(C=C[C@@H]1C)C[C@@H]1C[C@@H](C/C=C(\C)[C@@H](O[C@H]3C[C@H](OC)[C@@H](O[C@H]4C[C@H](OC)[C@@H](O)[C@H](C)O4)[C@H](C)O3)[C@@H](C)/C=C/C=C3\CO[C@@H]4[C@H](O)C(C)=C[C@@H](C(=O)O1)[C@]34O)O2.CO[C@H]1C[C@H](O[C@H]2[C@H](C)O[C@@H](O[C@@H]3/C(C)=C/C[C@@H]4C[C@@H](C[C@]5(C=C[C@H](C)[C@@H](C(C)C)O5)O4)OC(=O)[C@@H]4C=C(C)[C@@H](O)[C@H]5OC/C(=C\C=C\[C@@H]3C)[C@]54O)C[C@@H]2OC)O[C@@H](C)[C@@H]1O [Avermectin b1],scaled lipid accumulation score,[1],inactive: ≤ 0
CC[C@H](C)[C@H]1O[C@]2(C=C[C@@H]1C)C[C@@H]1C[C@@H](C/C=C(\C)[C@@H](O[C@H]3C[C@H](OC)[C@@H](O[C@H]4C[C@H](OC)[C@@H](O)[C@H](C)O4)[C@H](C)O3)[C@@H](C)/C=C/C=C3\CO[C@@H]4[C@H](O)C(C)=C[C@@H](C(=O)O1)[C@]34O)O2.CO[C@H]1C[C@H](O[C@H]2[C@H](C)O[C@@H](O[C@@H]3/C(C)=C/C[C@@H]4C[C@@H](C[C@]5(C=C[C@H](C)[C@@H](C(C)C)O5)O4)OC(=O)[C@@H]4C=C(C)[C@@H](O)[C@H]5OC/C(=C\C=C\[C@@H]3C)[C@]54O)C[C@@H]2OC)O[C@@H](C)[C@@H]1O [Avermectin B1],scaled lipid accumulation score,,inactive: ≤ 0
